Measurements published in the supplement of paper PMC3334620.
Whole data set: some 33,000 sequences, median “E-score (-0.5 to 0.5)” near -0.011, cut for the highest 2% near 0.28. The list shows a part of the results.

Target: T1, Gcr1 (UniProt P07261)
T1 sequence: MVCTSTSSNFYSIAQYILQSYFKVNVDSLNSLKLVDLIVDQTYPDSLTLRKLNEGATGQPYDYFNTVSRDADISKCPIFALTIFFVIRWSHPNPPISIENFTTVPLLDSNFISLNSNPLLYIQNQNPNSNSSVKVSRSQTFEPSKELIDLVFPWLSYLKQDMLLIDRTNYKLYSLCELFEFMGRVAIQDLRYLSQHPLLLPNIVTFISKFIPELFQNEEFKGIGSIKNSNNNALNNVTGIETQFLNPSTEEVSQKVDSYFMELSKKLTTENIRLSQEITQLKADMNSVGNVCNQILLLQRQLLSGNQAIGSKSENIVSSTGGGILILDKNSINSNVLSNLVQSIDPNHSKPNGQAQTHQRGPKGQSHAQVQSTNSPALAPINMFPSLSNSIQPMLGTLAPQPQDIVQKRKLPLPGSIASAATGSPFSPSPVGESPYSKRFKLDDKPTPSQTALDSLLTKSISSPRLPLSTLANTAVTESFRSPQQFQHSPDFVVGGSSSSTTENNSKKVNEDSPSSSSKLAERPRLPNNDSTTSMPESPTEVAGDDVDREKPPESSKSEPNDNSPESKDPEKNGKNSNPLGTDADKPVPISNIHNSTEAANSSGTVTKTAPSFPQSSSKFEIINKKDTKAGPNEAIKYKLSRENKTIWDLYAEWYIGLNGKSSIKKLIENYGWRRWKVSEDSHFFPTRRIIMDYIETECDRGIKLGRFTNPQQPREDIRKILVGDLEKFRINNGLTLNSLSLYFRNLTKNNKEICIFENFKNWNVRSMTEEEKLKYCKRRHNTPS
Assay: PBM E-score (8-mer binding enrichment) (E-score (-0.5 to 0.5)); higher = stronger / more preferred TF binding; most listed sequences are background and not binding sites
Conditions: protein concentration: 100 nM; construct: GST-full length
How it was run: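 GST-tagged yeast TFs (full-length or DNA-binding domain) were made by PURExpress in vitro transcription/translation and applied at about 100-200 nM to universal all-10-mer Agilent arrays. The arrays were made double-stranded by primer extension, on fresh or once-stripped slides. Bound protein was detected with fluorescent anti-GST, and scans were normalised with masliner. Each ungapped eight-base word, pooled with its reverse complement, received an E-score (modified Wilcoxon-Mann-Whitney statistic) from the Universal PBM Analysis Suite.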

| Sequence | PBM E-score |
| --- | --- |
| CCACGCCC | -0.202 |
| ACTTGTCT | -0.0137 |
| ATTCTCCA | 0.0563 |
| AGACGGGA | 0.0406 |
| ACTAACTC | -0.146 |
| ACGTCGAT | 0.0202 |
| CAATTAGC | -0.0933 |
| CCGTCATA | -0.0107 |
| ACACTTTA | -0.0103 |
| CTGATAAG | 0.0222 |
| TACCATGA | -0.0573 |
| AGGGCCCG | 0.115 |
| GTCTTTCA | -0.125 |
| ACCAATCA | 0.094 |
| ACAGACAT | -0.144 |
| ACGTTTGC | -0.227 |
| GATAGTAC | -0.209 |
| CCTACCCC | -0.119 |
| ATCTTTCG | -0.0569 |
| AACAGTGG | 0.15 |
| CAACCTGG | -0.0727 |
| CCCCGGAA | 0.124 |
| ACATAAAA | 0.0485 |
| AAATCAGA | -0.0181 |
| CTGCCGAC | 0.0338 |

| Sequence | PBM E-score |
| --- | --- |
| CAGTGTAC | -0.17 |
| TAACAATA | 0.0442 |
| AATCTACG | 0.0544 |
| GTGTGAGA | -0.182 |
| GGTGCTAA | 0.255 |
| AATCAATG | 0.141 |
| CTCACAAA | -0.127 |
| CGCGTGGC | -0.199 |
| AATTCAGG | 0.252 |
| ACGGCCAC | 0.0247 |
| ATGGTTGA | -0.00811 |
| CACAACTA | 0.118 |
| ACTGGAAT | 0.415 |
| CGCAGGGC | 0.0948 |
| GAGAGAAC | -0.0962 |
| GCTCCTGA | 0.0814 |
| CACAAGCG | -0.181 |
| AATGTTAG | 0.0266 |
| CGGAATAG | 0.0552 |
| TATCTTCA | -0.116 |
| CGGTTGCC | 0.0303 |
| ACTGCGGC | 0.00516 |
| CGTTCGCA | -0.183 |
| CCGGGTAG | -0.0416 |
| CGTAACGA | -0.0805 |

| Sequence | PBM E-score |
| --- | --- |
| CGCACCCC | 0.0174 |
| TTAGCCAA | -0.16 |
| TAACAGAA | 0.264 |
| TAAGTGTA | 0.0411 |
| ATCTCTCA | -0.057 |
| GCTGGGAA | 0.109 |
| ATTATTCA | 0.0454 |
| TAAGGATA | 0.106 |
| CCTTTATC | -0.00508 |
| CTCCCAGC | -0.0348 |
| GCATACAC | -0.191 |
| AAATATAG | 0.0804 |
| GAGGCTCA | -0.188 |
| AGACTACG | -0.169 |
| CGCTTAAA | 0.0798 |
| CGACCCCG | -0.151 |
| CATTTTGA | 0.0927 |
| AACTGTCG | 0.00358 |
| AGCGACAC | -0.0398 |
| CCTTCTTC | -0.145 |
| AATCCTCC | -0.0264 |
| ACGGCTGA | -0.163 |
| AATCTTCG | 0.148 |
| CGGTGATC | 0.0363 |
| TGAACGCA | 0.0909 |

| Sequence | PBM E-score |
| --- | --- |
| AGCCGACA | -0.00925 |
| CTATCTCC | -0.0103 |
| GGAGATTA | 0.0216 |
| GAAAACAA | -0.0846 |
| TGGGCCAA | -0.0838 |
| AAGCGATG | -0.00894 |
| ATGGAAGA | -0.0302 |
| ATGTATAA | -0.0422 |
| ATAAGCAT | 0.00462 |
| CAGGTGGG | -0.045 |
| CAAGATAC | 0.0544 |
| CGTCGCCC | 0.0704 |
| CCCCAGCC | -0.126 |
| GCTCCAGA | 0.0749 |
| AATCCCAC | 0.0067 |
| CACAGCTA | -0.0538 |
| ACGGACGG | -0.177 |
| CGATAGGA | 0.0876 |
| CATTACGC | 0.137 |
| ATGTGGGC | -0.0497 |
| ATACTAAT | 0.188 |
| GCATTGGA | 0.0264 |
| GCCATGCC | -0.16 |
| GAAGGGTA | 0.155 |
| GTGGGTTA | 0.0887 |

| Sequence | PBM E-score |
| --- | --- |
| ATTCTAGC | 0.0665 |
| CAGATATG | 0.125 |
| TCAAAGAA | 0.0168 |
| CATAATAC | 0.149 |
| AGGCCACC | -0.0169 |
| TCTTGGAA | 0.00248 |
| AGAATAAT | 0.207 |
| TAAAAGCA | 0.2 |
| AGCATTTC | 0.0346 |
| CACTTAAA | 0.0634 |
| CTTCGGAA | 0.086 |
| GACCCCCC | -0.241 |
| ATACTTCG | -0.12 |
| AGGCTCAC | -0.175 |
| ATGTTTGG | -0.0852 |
| CCTCTACA | 0.216 |
| AAAGTTGA | 0.102 |
| GGACGAAA | -0.00369 |
| GATCTTGA | 0.0503 |
| CCAACAAC | 0.103 |
| AAGCGCCG | -0.0799 |
| AAGAAGAT | 0.338 |
| CGGTGAAA | -0.0939 |
| AACATGGC | -0.292 |
| AATGGGAA | 0.132 |

| Sequence | PBM E-score |
| --- | --- |
| ATACAATG | 0.0525 |
| GGGGCACC | 0.351 |
| CTTTTCCC | -0.0809 |
| ATTGCATC | 0.0623 |
| ATGAGTAA | -0.163 |
| AGAAAGTG | -0.0718 |
| AAAGTAAA | 0.0386 |
| ATGCTATA | 0.0929 |
| AAGAAATA | 0.176 |
| CTCCTTTA | 0.115 |
| GCAATAGA | 0.0987 |
| AACACGTT | -0.105 |
| GTACATAC | -0.0386 |
| AGAGCCTA | -0.186 |
| AGCGCCGA | 0.0415 |
| TCTGCAAA | -0.0886 |
| ATCACAAC | -0.0352 |
| CAACTGAC | -0.172 |
| ACGAAAAG | -0.0632 |
| GAAAAAGC | 0.012 |
| GCTCCACA | 0.0711 |
| CGTCTGAC | -0.0137 |
| CTTAACTA | 0.0693 |
| ATCTTAAG | 0.0404 |
| CTAGTGAG | 0.0315 |

| Sequence | PBM E-score |
| --- | --- |
| ACTTTCAT | -0.107 |
| AATAGGGC | 0.00213 |
| ATTCTCAG | -0.108 |
| ATCAGAAA | -0.164 |
| AACGCCCC | -0.133 |
| TGTAACAA | 0.231 |
| CAGGTGGA | -0.0941 |
| AATATCAC | -0.0571 |
| AAGTCAAC | -0.0231 |
| CAGCGACC | 0.0247 |
| AGTTCTCG | -0.229 |
| ATTTGCTG | 0.0999 |
| TCGCCAAA | 0.101 |
| CCTCATTA | 0.1 |
| AATCCTTG | -0.032 |
| GGAGGCGA | -0.0288 |
| AGCTGAGC | -0.162 |
| CTGCGATC | -0.00692 |
| AAAGGCAT | -0.192 |
| CAAGCGGA | -0.137 |
| CCTTGCTA | -0.124 |
| GAGCCCCC | 0.0093 |
| ATCTTAAA | 0.175 |
| ATACTTCA | -0.161 |
| ATCCCCGA | 0.0266 |

| Sequence | PBM E-score |
| --- | --- |
| CAATAAGA | 0.0471 |
| ACGGCTCT | -0.00284 |
| CACCCCTC | -0.0319 |
| AGAAGAGG | 0.188 |
| ATAACTAC | 0.0414 |
| ACCCGTGC | -0.189 |
| CATAGTCA | -0.135 |
| CCTGCAGG | -0.0642 |
| CAAGATTG | 0.124 |
| GTTTATAA | 0.129 |
| CGACCTAA | 0.159 |
| CGAGTCTC | -0.161 |
| CCCTGGCC | -0.328 |
| CTTTATTC | -0.0845 |
| GAAGAAAA | -0.0497 |
| GCCACCGC | -0.2 |
| ATCGGTTA | -0.159 |
| CGGCTGCA | 0.0568 |
| GTTCTACA | 0.0726 |
| AGAAACCA | 0.193 |
| GGGGAAAA | -0.214 |
| ATCCTAGC | 0.0076 |
| AGATCGCC | -0.147 |
| CAGAACGA | -0.0449 |
| CATAGGAC | 0.0126 |

| Sequence | PBM E-score |
| --- | --- |
| ATTGCAGC | 0.141 |
| ACAGCGGG | -0.061 |
| ACTTGCAT | 0.0333 |
| GCTACGTA | 0.101 |
| ATGCCTGG | -0.00807 |
| ACCTAAAC | 0.217 |
| CCCATACA | 0.0223 |
| AGCGTCAT | 0.1 |
| CAAAGCGG | 0.0601 |
| CACTATGG | -0.199 |
| CAATCCAG | 0.0522 |
| CTTTACGC | -0.0395 |
| GACTCGTA | -0.149 |
| ACACATAG | -0.021 |
| AGAGTGTG | -0.00779 |
| ACAGTTAG | 0.00922 |
| CGTTAACG | -0.337 |
| TGCCGTAA | -0.0522 |
| CAAGAACC | 0.13 |
